# Measurements from PubChem BioAssay AID504466 (National Center for Advancing Translational Sciences (NCATS), 2011).
# The campaign covered roughly 330,000 compounds. About 4,200 (1.3%) were called active. Inconclusive means that the source gave no clear call. Such entries were picked first, then a sample of the others. The call rests on the fitted dose curve; in most records, active means well fitted activation curve with a large enough effect; inconclusive means small, poorly fitted or top-dose-only effect; inactive means no such curve, though single readings can be large or run the other way. A potency beside an inconclusive call is a rough fit, not a confirmed value.
# Assay: qHTS screen for small molecules that induce genotoxicity in human embryonic kidney (HEK293T) cells expressing luciferase-tagged ELG1; further: nearly all actives have a fitted effect of over 60% in size; on activity change, positive = activation: % of control where 0% means no effect
# Conditions: HEK293T ELG1-luciferase reporter, luminescence, 16 h; series mostly up to 46 µM
# Summary of the method: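 Reporter readout depends on ELG1 protein level, which increases with genetic stress. After 16 hr compound exposure at 37 °C, luciferase activity was quantified using ONE-Glo.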
# Potency means the concentration at half of the fitted maximal effect; tags describe the fitted curve by direction and shape.
Structure (SMILES),Potency,"activity change, positive = activation"
CCN(CC)S(=O)(=O)c1ccc(N2CCOCC2)c(NC(=O)c2[nH]c(C)c(C(C)=O)c2C)c1,active: 10.3 µM,
Cc1ccc(NC(=O)NCc2ccc3c(c2)OCO3)cc1C,"inconclusive: 14.6 µM [activator, partial curve, poor fit]",
O=C(Nc1cccc(OC(=O)c2ccc(Br)o2)c1)c1ccccc1,"inconclusive: 29.1 µM [activator, partial curve, poor fit]",
COc1ccc(/C=C/c2nc(-c3ccccc3O)n[nH]2)cc1,"inconclusive: 3.66 µM [activator, full curve]",
C/C(=N\NC(=O)c1ccco1)c1ccc(NC(=O)c2cccs2)cc1,"inconclusive: 25.9 µM [activator, partial curve, poor fit]",
Cc1nn(C)c(C(=O)Nc2cccc(CN3CCOCC3)c2)c1Br,inactive,
Cc1cccc(CNC(=O)c2ccc(NC(=O)C3=CSCCO3)cc2)c1,,inactive: 0.0949% [at 9.26 µM]
Oc1c(Cl)cc(Cl)cc1C=Nc1cc(C(F)(F)F)ccc1N1CCc2ccccc2C1,"inconclusive: 2.59 µM [activator, partial curve]",
COC(=O)c1ccc(COC(=O)CNS(=O)(=O)c2ccc(C)cc2)cc1,"inconclusive: 23.1 µM [activator, single point]",
CC1CCN(c2nc3ccc(C(=O)NCCCN4CCCCC4)cc3s2)CC1,"inconclusive: 0.0651 µM [activator, full curve]",
COc1cccc(C(=O)Nc2ccc(N(C)C)cc2)c1OC,"inconclusive: 4.11 µM [activator, full curve]",
Cc1cc(NC(=O)c2ccc3nccnc3c2)ccc1Br,"inconclusive: 1.16 µM [activator, partial curve, poor fit]",
O=C(CCN1C(=O)C2CCCCC2C1=O)Nc1nc2c(F)cc(F)cc2s1 (stereo not given),"inconclusive: 7.3 µM [activator, partial curve, poor fit]",
COc1ccc(CN(C(=O)c2cc(=O)c3ccccc3o2)C2CCS(=O)(=O)C2)cc1OC (stereo not given),inactive,
CC(=O)c1ccc(NC(=O)CSc2nnc(NC(=O)c3ccco3)s2)cc1,"inconclusive: 25.9 µM [activator, single point]",
CCN(CC)C(=O)c1sc2nc(-c3ccccc3)ccc2c1N,"inconclusive: 2.59 µM [activator, full curve]",
Cc1ccc(OCCSCc2nnc(NC(=O)Nc3cccc(Cl)c3)s2)cc1,inactive,
COc1ccc(N2C(=O)C3CCCN3C2c2cccc(C)c2)cc1Cl (stereo not given),"inconclusive: 20.6 µM [activator, single point]",
CNC(=S)N/N=C/c1ccc2c(c1)OCCO2,"inconclusive: 23.1 µM [activator, partial curve, poor fit]",
CCc1ccccc1NC(=O)Nc1ccc2c(c1)OCO2,"inconclusive: 18.3 µM [activator, partial curve, poor fit]",
Cc1nnc(NC(=O)CSc2ccc(-c3ccc(Cl)cc3)nn2)s1,"inconclusive: 18.3 µM [activator, partial curve, poor fit]",
Cc1ccc2c(c1)c1nnc(SCC(=O)N3CCCc4ccccc43)nc1n2CC(=O)O,"inconclusive: 20.6 µM [activator, single point]",
O=C(CCc1nc2ccccc2c(=O)[nH]1)Nc1nc(-c2cccs2)cs1,"inconclusive: 18.3 µM [activator, partial curve]",

Structure (SMILES),Potency,"activity change, positive = activation"
O=[N+]([O-])c1ncccc1OCc1ccc(Cl)c(Cl)c1,active: 18.3 µM,
c1ccc(CCSc2nccn2-c2ccccc2)cc1,"inconclusive: 2.31 µM [activator, full curve]",
O=C(/C=C/c1cnc2ccccc2n1)NC12CC3CC(CC(C3)C1)C2,"inconclusive: 3.66 µM [activator, full curve]",
CCOC(=O)c1ccc(NC2Nc3cc(C)nn3S2)cc1 (stereo not given),"inconclusive: 0.164 µM [activator, single point]",
Cc1cccc(N(C)C(=O)c2cc3cc4ccc(C)cc4nc3o2)c1,active: 20.6 µM,
O=C(Cc1cccs1)NCc1ccccc1F,"inconclusive: 11.2 µM [activator, single point]",
COC(=O)c1c(C)[nH]c(C(=O)CN2C(=O)C3CC=CCC3C2=O)c1C (stereo not given),"inconclusive: 20.6 µM [activator, partial curve, poor fit]",
C/C(=N\Nc1nc2ccccc2s1)c1ccc2c(c1)OCO2,"inconclusive: 14.6 µM [activator, single point]",
O=C(Cc1csc(-c2ccccc2)n1)NCc1ccc(F)cc1,inactive,
Fc1cccc(F)c1-c1nc(-c2ccncc2)no1,"inconclusive: 20.6 µM [activator, partial curve]",
Cc1cc2cc3c(N)[nH]nc3nc2cc1C,"inconclusive: 20.6 µM [activator, partial curve]",
CCc1ccccc1S(=O)(=O)Cc1ccc(C(=O)NCc2cccs2)o1,inactive,
O=CC(=O)c1ccccc1,inactive,
CC(C)(C)OC(=O)NCCC(=O)N/N=C/c1ccc2ncccc2c1,inactive,
COc1ccc(Cc2[nH]n3c(=O)c(Cl)c(C)nc3c2-c2ccccc2)cc1,inactive,
CCOc1ccc(NC(=O)CCC(=O)Nc2nnc(CC)s2)cc1,inactive,
O=C(CSc1nnc(-c2ccco2)n1Cc1ccccc1)OC1CCCCC1,"inconclusive: 10.3 µM [activator, partial curve, poor fit]",
Cn1cnc2cc(NCc3ccc(Cl)cc3)ccc21,"inconclusive: 7.3 µM [activator, partial curve]",
CCS(=O)(=O)c1nc2ccccc2n1Cc1ccccc1Cl,"inconclusive: 18.4 µM [activator, single point]",
O=C(N/N=C/c1ccccn1)c1ccccc1,"inconclusive: 23.1 µM [activator, single point]",
C=CCNc1nc(-c2cc3ccccc3o2)cs1,active: 0.517 µM,
Cc1ccc2nc(SCC(=O)c3ccc(O)cc3O)[nH]c2c1,"inconclusive: 11.6 µM [activator, partial curve, poor fit]",
